Test results reported in the antibiotic and cytotoxicity screens of Wong et al. (2023).
Some of the results follow.

These compounds were tested on HSkMC (human skeletal muscle cells) (assay: cytotoxicity call (relative viability < 0.9)). Settings: 10 µM.
For `COc1ccc(S(=O)(=O)Nc2ccc3c(c2)C(=O)N([C@@H](C)CO)C[C@@H](C)[C@@H](CN(C)C(=O)Nc2cccc4ccccc24)O3)cc1`, the cytotoxicity call was “inactive”. In the case of `Cc1ccc(S(=O)(=O)Nc2ccc3c(c2)CC(=O)N([C@@H](C)CO)C[C@@H](C)[C@@H](CN(C)Cc2ccncc2)O3)cc1`, the cytotoxicity call was “inactive”. With `C[C@H](CO)N1C[C@H](C)[C@@H](CN(C)Cc2ccc(Oc3ccccc3)cc2)Oc2cc(Br)ccc2S1(=O)=O` the cytotoxicity call was “inactive”. `COc1ccc(NC(=O)N(C)C[C@@H]2OCCCC[C@@H](C)Oc3ccc(NS(=O)(=O)c4ccc(C)cc4)cc3C(=O)N([C@H](C)CO)C[C@@H]2C)cc1` was tested, and the cytotoxicity call was “inactive”. With `Cc1cc(O)cc2c1O[C@](C)(CCC[C@H](C)CCC[C@H](C)CCCC(C)C)CC2` the cytotoxicity call was “inactive”. For `NC(=O)c1cn([C@@H]2O[C@H](CO)[C@@H](O)[C@H]2O)c2ncnc(N)c2c1=O`, the cytotoxicity call was “active”. In the case of `C[C@@H]1CCCCO[C@@H](CN(C)Cc2ccc3c(c2)OCO3)[C@H](C)CN([C@@H](C)CO)C(=O)c2cc(NS(=O)(=O)c3ccccc3)ccc2O1`, the cytotoxicity call was “inactive”. For `Cc1ccc(S(=O)(=O)NC2=NCN(CCN3CCOCC3)CN2)cc1`, the cytotoxicity call was “inactive”. `Cc1ccc(S(=O)(=O)N(C)C[C@H]2OCCCC[C@@H](C)Oc3ccc(NS(=O)(=O)c4ccc(Cl)cc4)cc3C(=O)N([C@H](C)CO)C[C@@H]2C)cc1` was tested, and the cytotoxicity call was “inactive”. `O=C(C[C@H]1CC[C@@H]2[C@H](COC[C@H](O)CN2S(=O)(=O)c2cccc(F)c2)O1)NCc1ccncn1` was tested, and the cytotoxicity call was “inactive”. For `C[C@H]1CN([C@@H](C)CO)C(=O)Cc2cc(NC(=O)Nc3ccc(C(F)(F)F)cc3)ccc2O[C@H]1CN(C)S(C)(=O)=O`, the cytotoxicity call was “inactive”. For `C[C@@H]1CN([C@@H](C)CO)C(=O)c2cc(NS(=O)(=O)c3ccc(F)cc3)ccc2O[C@@H]1CN(C)Cc1ccncc1`, the cytotoxicity call was “inactive”. With `CCS(=O)(=O)NCC[C@@H]1CC[C@@H](NS(=O)(=O)c2ccccc2C)[C@H](CO)O1` the cytotoxicity call was “inactive”. `COc1ccc(S(=O)(=O)Nc2ccc3c(c2)C(=O)N([C@@H](C)CO)C[C@H](C)[C@@H](CN(C)Cc2ccc4c(c2)OCO4)OCCCC[C@H](C)O3)cc1` was tested, and the cytotoxicity call was “inactive”. For `CCO[C@H]1[C@H]2CC[C@@H]1N(C(=O)N(C)C)CCO2`, the cytotoxicity call was “inactive”. `C[C@@H]1CCCCO[C@@H](CN(C)CC2CCCCC2)[C@@H](C)CN([C@H](C)CO)C(=O)c2cc(NC(=O)Nc3ccc(F)cc3)ccc2O1` was tested, and the cytotoxicity call was “inactive”. `Cc1ccc(S(=O)(=O)Nc2ccc3c(c2)C(=O)N([C@H](C)CO)C[C@H](C)[C@H](CN(C)C(=O)c2ccccc2)OCCCC[C@@H](C)O3)cc1` was tested, and the cytotoxicity call was “inactive”. In the case of `O=C1O[C@H](c2ccccc2)[C@H](c2ccccc2)N2[C@H]1[C@@H](C(=O)Nc1nc3ccccc3s1)[C@]1(C(=O)Nc3ccc(C#CCCO)cc31)[C@H]2c1ccc(OCCO)cc1`, the cytotoxicity call was “inactive”. `Nc1nc(Cl)nc2c1ncn2[C@@H]1O[C@H](CO)[C@@H](O)[C@H]1O` was tested, and the cytotoxicity call was “inactive”. With `CN1CCCC1c1cccnc1.O=C(O)C(O)C(O)C(=O)O.O=C(O)C(O)C(O)C(=O)O` (stereo unspecified) the cytotoxicity call was “inactive”. In the case of `Cc1noc(C)c1NC(=O)N(C)C[C@H]1Oc2ccc(NC(=O)Nc3ccc(C(F)(F)F)cc3)cc2CC(=O)N([C@H](C)CO)C[C@@H]1C`, the cytotoxicity call was “inactive”. For `CO[C@@H](CN(C)S(=O)(=O)c1cccc(Cl)c1)[C@H](C)CN([C@@H](C)CO)S(=O)(=O)c1ccc(Cl)cc1`, the cytotoxicity call was “inactive”. In the case of `C[C@@H]1CN([C@H](C)CO)C(=O)c2c(c3ccccc3n2C)-c2ccccc2CO[C@@H]1CN(C)Cc1ccc(Oc2ccccc2)cc1`, the cytotoxicity call was “inactive”. With `C[C@H](CO)N1C[C@H](C)[C@@H](CN(C)S(=O)(=O)c2cn(C)cn2)Oc2ccc(N(C)C)cc2CC1=O` the cytotoxicity call was “inactive”. With `Cc1cc(=O)n2c(C)nnc2[nH]1` the cytotoxicity call was “inactive”. For `C[C@@H]1CN([C@H](C)CO)C(=O)c2cccc(NC(=O)C3CCCCC3)c2O[C@H]1CN(C)C(=O)Nc1ccc(C(F)(F)F)cc1`, the cytotoxicity call was “inactive”. In the case of `O=C1C[C@H](N2C(=O)CCC2=O)[C@@H]2CO[C@@H]1O2`, the cytotoxicity call was “inactive”. In the case of `CCCCCCCc1c(C)c(O)cc2c1[nH]c1ccccc12`, the cytotoxicity call was “inactive”. In the case of `CC(C)NC(=O)N(C)C[C@@H]1OCCCC[C@H](C)Oc2ccc(NC(=O)Nc3ccc(F)cc3)cc2C(=O)N([C@@H](C)CO)C[C@H]1C`, the cytotoxicity call was “inactive”. For `O=C(O)CCCNc1n[nH]c(=O)[nH]c1=O`, the cytotoxicity call was “inactive”. `C[C@H]1CCCCO[C@H](CN(C)S(=O)(=O)c2cccs2)[C@@H](C)CN([C@@H](C)CO)C(=O)c2cc(NS(C)(=O)=O)ccc2O1` was tested, and the cytotoxicity call was “inactive”.
